{"source": "the supplement of paper PMC8728848", "binders": {"B1": {"name": "Pbx2 (Cryptococcus neoformans) (protein)", "chain": "AVSPLPSSTELVFYSQKRRRRRICSTATGSLSTPDPTRMTSDPYKRVGMRFSSVPRLLITFLSLLLLVSAAPPCVRFADYDSINQMFIDGGPGTKVLLCPNRLYRLSGPIIFTAADQEIATYGYPTGSERAVLRVEGRNTATAIQGDCRRCARVSVKNLVVDGNRKKLGRMRDFQLATGLVVLGGNEGQSIQNSWIKNPRGFTAIHIREGDKLQCSGARVEKNEIGPVGEEYDPEKDGDDPEMSPLGRPLADGVSIACRDSFIRDNTFRDNTDAAIVVYCSPGTLIHANHIFAQSLSAMAGILMVDSTPFNGDYTGTVVRSNIIDAVSRTIRVGIGIGPTVWSDDTETILTGGSVIGNGLKGRYMGYGIAAAGLKQWTIKDNWDEAKHEGRKSARCFDEPVNPDPIGLLYNRPTMEDCTVQSGFADHDFQYLVCIDGLYDKTNPPKHDPAPLAHDPSPTNAQEDNTVQQDGGDSKSKSIEQPREASDIEAEPSVEKMFSTGSEMMDDVLEHSHQRMHEVIDHLSRRIDILGAASAGKGSGDSKISEVLDPAMSSHLEKLQRKIEHLEFSLRSQIETAIQLRSAIQGWDQEMALVTDWEYDILLDVRHKLELSSYPHDQPLDPRLMRGQSYLNNEAVLVDDHSHPSLEGENLRAMSDRARLNANEEA"}}, "assay_in_all_cases": "glycan array binding signal (z-score within array); higher = stronger binding", "details_in_all_cases": "glycan notation: IUPAC condensed, linker removed", "key": {"Gal3S(b1-4)Glc6S": {"target": "Gal3S(b1-4)Glc6S", "outline": "(§1)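 The binding signal is a Z-score computed within each array and averaged over linkers. Arrays of the same protein sequence at different concentrations or buffers were also averaged together. Data originate from 3228 arrays in the Consortium for Functional Glycomics database, kept only where the protein sequence was available.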"}, "Gal3S(b1-4)GlcNAc": {"target": "Gal3S(b1-4)GlcNAc", "outline": "as §1"}, "[1]": {"target": "Gal3S(b1-4)[Fuc(a1-3)]Glc6S", "outline": "as §1"}, "[2]": {"target": "Gal3S(b1-4)[Fuc(a1-3)]GlcNAc", "outline": "as §1"}, "[3]": {"target": "Gal3S(b1-4)[Fuc(a1-3)]GlcNAc6S", "outline": "as §1"}, "Gal3S4S(b1-4)GlcNAc": {"target": "Gal3S4S(b1-4)GlcNAc", "outline": "as §1"}, "Gal3S6S(b1-4)GlcNAc": {"target": "Gal3S6S(b1-4)GlcNAc", "outline": "as §1"}, "Gal3S6S(b1-4)GlcNAc6S": {"target": "Gal3S6S(b1-4)GlcNAc6S", "outline": "as §1"}, "Gal4S(b1-4)GlcNAc": {"target": "Gal4S(b1-4)GlcNAc", "outline": "as §1"}, "Gal4S6S(b1-4)GlcNAc": {"target": "Gal4S6S(b1-4)GlcNAc", "outline": "as §1"}, "Gal6P(b1-4)GlcNAc": {"target": "Gal6P(b1-4)GlcNAc", "outline": "as §1"}, "Gal6S(b1-3)GlcNAc": {"target": "Gal6S(b1-3)GlcNAc", "outline": "as §1"}, "Gal6S(b1-3)GlcNAc6S": {"target": "Gal6S(b1-3)GlcNAc6S", "outline": "as §1"}, "Gal6S(b1-4)Glc": {"target": "Gal6S(b1-4)Glc", "outline": "as §1"}, "Gal6S(b1-4)Glc6S": {"target": "Gal6S(b1-4)Glc6S", "outline": "as §1"}, "Gal6S(b1-4)GlcNAc": {"target": "Gal6S(b1-4)GlcNAc", "outline": "as §1"}, "Gal6S(b1-4)GlcNAc6S": {"target": "Gal6S(b1-4)GlcNAc6S", "outline": "as §1"}, "GalNAc(a1-3)Gal": {"target": "GalNAc(a1-3)Gal", "outline": "as §1"}, "GalNAc(a1-3)GalNAc": {"target": "GalNAc(a1-3)GalNAc", "outline": "as §1"}, "[4]": {"target": "GalNAc(a1-3)GalNAc(a1-3)Gal(a1-4)Gal(b1-4)GlcNAc", "outline": "as §1"}, "[5]": {"target": "GalNAc(a1-3)GalNAc(b1-3)Gal(a1-4)Gal(b1-4)Glc", "outline": "as §1"}, "GalNAc(b1-3)Gal": {"target": "GalNAc(b1-3)Gal", "outline": "as §1"}, "[6]": {"target": "GalNAc(b1-3)Gal(a1-4)Gal(b1-4)GlcNAc", "outline": "as §1"}, "[7]": {"target": "GalNAc(b1-3)Gal(a1-4)Gal(b1-4)GlcNAc(b1-3)Gal(b1-4)Glc", "outline": "as §1"}, "[8]": {"target": "GalNAc(b1-3)Gal(a1-6)Gal(b1-4)Glc", "outline": "as §1"}, "GalNAc(b1-3)GalNAc": {"target": "GalNAc(b1-3)GalNAc", "outline": "as §1"}, "GalNAc(b1-3)GlcNAc": {"target": "GalNAc(b1-3)GlcNAc", "outline": "as §1"}, "GalNAc(b1-4)Gal(b1-4)Glc": {"target": "GalNAc(b1-4)Gal(b1-4)Glc", "outline": "as §1"}, "GalNAc(b1-4)GlcNAc": {"target": "GalNAc(b1-4)GlcNAc", "outline": "as §1"}, "[9]": {"target": "GalNAc(b1-4)GlcNAc(b1-2)Man", "outline": "as §1"}}, "note": "Some of the results follow.", "data": [{"binder": "B1", "values": [{"measurement": "glycan array binding signal (z-score)", "setting": "Gal3S(b1-4)Glc6S", "result": 1.77}, {"measurement": "glycan array binding signal (z-score)", "setting": "Gal3S(b1-4)GlcNAc", "result": -0.362}, {"measurement": "glycan array binding signal (z-score)", "setting": "[1]", "result": 0.817}, {"measurement": "glycan array binding signal (z-score)", "setting": "[2]", "result": -0.345}, {"measurement": "glycan array binding signal (z-score)", "setting": "[3]", "result": 2.33}, {"measurement": "glycan array binding signal (z-score)", "setting": "Gal3S4S(b1-4)GlcNAc", "result": 0.738}, {"measurement": "glycan array binding signal (z-score)", "setting": "Gal3S6S(b1-4)GlcNAc", "result": -0.241}, {"measurement": "glycan array binding signal (z-score)", "setting": "Gal3S6S(b1-4)GlcNAc6S", "result": 6.21}, {"measurement": "glycan array binding signal (z-score)", "setting": "Gal4S(b1-4)GlcNAc", "result": -0.339}, {"measurement": "glycan array binding signal (z-score)", "setting": "Gal4S6S(b1-4)GlcNAc", "result": 2.65}, {"measurement": "glycan array binding signal (z-score)", "setting": "Gal6P(b1-4)GlcNAc", "result": -0.323}, {"measurement": "glycan array binding signal (z-score)", "setting": "Gal6S(b1-3)GlcNAc", "result": -0.45}, {"measurement": "glycan array binding signal (z-score)", "setting": "Gal6S(b1-3)GlcNAc6S", "result": 3.95}, {"measurement": "glycan array binding signal (z-score)", "setting": "Gal6S(b1-4)Glc", "result": 0.118}, {"measurement": "glycan array binding signal (z-score)", "setting": "Gal6S(b1-4)Glc6S", "result": 2.65}, {"measurement": "glycan array binding signal (z-score)", "setting": "Gal6S(b1-4)GlcNAc", "result": -0.34}, {"measurement": "glycan array binding signal (z-score)", "setting": "Gal6S(b1-4)GlcNAc6S", "result": 2.56}, {"measurement": "glycan array binding signal (z-score)", "setting": "GalNAc(a1-3)Gal", "result": -0.128}, {"measurement": "glycan array binding signal (z-score)", "setting": "GalNAc(a1-3)GalNAc", "result": -0.63}, {"measurement": "glycan array binding signal (z-score)", "setting": "[4]", "result": 0.168}, {"measurement": "glycan array binding signal (z-score)", "setting": "[5]", "result": -0.031}, {"measurement": "glycan array binding signal (z-score)", "setting": "GalNAc(b1-3)Gal", "result": -0.31}, {"measurement": "glycan array binding signal (z-score)", "setting": "[6]", "result": -0.438}, {"measurement": "glycan array binding signal (z-score)", "setting": "[7]", "result": -0.339}, {"measurement": "glycan array binding signal (z-score)", "setting": "[8]", "result": -0.288}, {"measurement": "glycan array binding signal (z-score)", "setting": "GalNAc(b1-3)GalNAc", "result": -0.343}, {"measurement": "glycan array binding signal (z-score)", "setting": "GalNAc(b1-3)GlcNAc", "result": -0.369}, {"measurement": "glycan array binding signal (z-score)", "setting": "GalNAc(b1-4)Gal(b1-4)Glc", "result": 1.86}, {"measurement": "glycan array binding signal (z-score)", "setting": "GalNAc(b1-4)GlcNAc", "result": -0.531}, {"measurement": "glycan array binding signal (z-score)", "setting": "[9]", "result": -0.358}]}]}
